Test results published in PMC9911399, “Two distinct binding modes provide the RNA-binding protein RbFox with extraordinary sequence specificity”.
Numbering of substitutions follows the chain as printed; changes in the protein carry UniProt numbers. The list shows a part of the results.

T1: RBFOX1 RRM RbFoxmut (Fox-RRM*) (Homo sapiens, UniProt Q9NWB1 109-208, R118D;E147R;N151S;E152T)
T1 sequence: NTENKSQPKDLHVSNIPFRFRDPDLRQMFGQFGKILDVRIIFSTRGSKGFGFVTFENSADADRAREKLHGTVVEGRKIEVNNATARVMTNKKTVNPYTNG

B1: UCUACUU (DNA:RNA)
RNA: GGGAGACCGGAAUUCAGAUUGUCCUCUACUUUUAAAUCCCGUCGUAGCCACCA
DNA 1: CAATCTGAATTCCGGTCTCCC
DNA 2: TGGTGGCTACGACGGGATT
B2: UUGCAUU (DNA:RNA)
RNA: B1 RNA with C26U, U27G, A28C, C29A
DNA 1: CAATCTGAATTCCGGTCTCCC
DNA 2: TGGTGGCTACGACGGGATT
B3: AGUCCCG (DNA:RNA)
RNA: B1 RNA with U25A, C26G, A28C, U30C, U31G
DNA 1: CAATCTGAATTCCGGTCTCCC
DNA 2: TGGTGGCTACGACGGGATT
B4: UCCUGCC (DNA:RNA)
RNA: B1 RNA with U27C, A28U, C29G, U30C, U31C
DNA 1: CAATCTGAATTCCGGTCTCCC
DNA 2: TGGTGGCTACGACGGGATT
B5: UGACACU (DNA:RNA)
RNA: B1 RNA with C26G, U27A, A28C, C29A, U30C
DNA 1: CAATCTGAATTCCGGTCTCCC
DNA 2: TGGTGGCTACGACGGGATT
B6: CCAACGC (DNA:RNA)
RNA: B1 RNA with U25C, U27A, U30G, U31C
DNA 1: CAATCTGAATTCCGGTCTCCC
DNA 2: TGGTGGCTACGACGGGATT
B7: CAUAGUA (DNA:RNA)
RNA: B1 RNA with U25C, C26A, C29G, U31A
DNA 1: CAATCTGAATTCCGGTCTCCC
DNA 2: TGGTGGCTACGACGGGATT
B8: GCAACAU (DNA:RNA)
RNA: B1 RNA with U25G, U27A, U30A
DNA 1: CAATCTGAATTCCGGTCTCCC
DNA 2: TGGTGGCTACGACGGGATT
B9: UGCUUUA (DNA:RNA)
RNA: B1 RNA with C26G, U27C, A28U, C29U, U31A
DNA 1: CAATCTGAATTCCGGTCTCCC
DNA 2: TGGTGGCTACGACGGGATT
B10: GUUGGUA (DNA:RNA)
RNA: B1 RNA with U25G, C26U, A28G, C29G, U31A
DNA 1: CAATCTGAATTCCGGTCTCCC
DNA 2: TGGTGGCTACGACGGGATT
B11: GUAUACA (DNA:RNA)
RNA: GGGAGACCGGAAUUCAGAUUGUCCGUAUACAUUAAAUCCCGUCGUAGCCACCA
DNA 1: CAATCTGAATTCCGGTCTCCC
DNA 2: TGGTGGCTACGACGGGATT
B12: AAUCGUA (DNA:RNA)
RNA: B1 RNA with U25A, C26A, A28C, C29G, U31A
DNA 1: CAATCTGAATTCCGGTCTCCC
DNA 2: TGGTGGCTACGACGGGATT
B13: GACGAGG (DNA:RNA)
RNA: B11 RNA with U26A, A27C, U28G, C30G, A31G
DNA 1: CAATCTGAATTCCGGTCTCCC
DNA 2: TGGTGGCTACGACGGGATT
B14: AUUGGUG (DNA:RNA)
RNA: B1 RNA with U25A, C26U, A28G, C29G, U31G
DNA 1: CAATCTGAATTCCGGTCTCCC
DNA 2: TGGTGGCTACGACGGGATT
B15: CUAACAA (DNA:RNA)
RNA: B11 RNA with G25C, U28A, A29C, C30A
DNA 1: CAATCTGAATTCCGGTCTCCC
DNA 2: TGGTGGCTACGACGGGATT
B16: CCAAAAU (DNA:RNA)
RNA: B1 RNA with U25C, U27A, C29A, U30A
DNA 1: CAATCTGAATTCCGGTCTCCC
DNA 2: TGGTGGCTACGACGGGATT
B17: AAACCAC (DNA:RNA)
RNA: B11 RNA with G25A, U26A, U28C, A29C, C30A, A31C
DNA 1: CAATCTGAATTCCGGTCTCCC
DNA 2: TGGTGGCTACGACGGGATT
B18: UAGGUCC (DNA:RNA)
RNA: B11 RNA with G25U, U26A, A27G, U28G, A29U, A31C
DNA 1: CAATCTGAATTCCGGTCTCCC
DNA 2: TGGTGGCTACGACGGGATT
B19: GGAAUGA (DNA:RNA)
RNA: B11 RNA with U26G, U28A, A29U, C30G
DNA 1: CAATCTGAATTCCGGTCTCCC
DNA 2: TGGTGGCTACGACGGGATT
B20: CCAUACA (DNA:RNA)
RNA: B11 RNA with G25C, U26C
DNA 1: CAATCTGAATTCCGGTCTCCC
DNA 2: TGGTGGCTACGACGGGATT

Biological target: T1, RBFOX1 RRM RbFoxmut (Fox-RRM*)
Experiment: EMSA; HiTS-Eq, 1 nM pool, 10 min; buffer printed only for the single-RNA assays: 10 mM Tris pH 7.5, 150 mM NaCl, 3.4 mM EDTA, 0.001% NP-40, 30 C
Conditions: tags: His6 N-terminal (pET28a); label: 5' 32P
Summary of the method: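 Purified RbFox RRM (wild type or mutant) was equilibrated for 10 min in 50 µL with 1 nM of a 5′-radiolabelled pool of RNA with 7 randomized nucleotides, its flanks annealed to DNA oligonucleotides, across increasing protein concentrations. Free RNA was separated by 8% native PAGE, excised, reverse-transcribed, PCR-barcoded and sequenced on an Illumina HiSeq 2500. Relative association constants came from read-count changes of each variant against the control reaction, normalised to the cognate motif.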

Q: With B1 as the binder, how does the binding signal read?
A: 0.0863 KA relative to UGCAUGU

Q: With B2 as the binder, how does the binding signal read?
A: 0.131 KA relative to UGCAUGU

Q: For B3, which binding signal is on record?
A: 0.0796 KA relative to UGCAUGU

Q: How did the binding signal turn out when B4 was run?
A: 0.29 KA relative to UGCAUGU

Q: B5 was tested. Which binding signal did it give?
A: 0.0662 KA relative to UGCAUGU

Q: How did the binding signal turn out when B6 was run?
A: 0.104 KA relative to UGCAUGU

Q: With B7 as the binder, how does the binding signal read?
A: 0.173 KA relative to UGCAUGU

Q: B8 was tested. Which binding signal did it give?
A: 0.0911 KA relative to UGCAUGU

Q: B9 was tested. Which binding signal did it give?
A: 0.144 KA relative to UGCAUGU

Q: How did the binding signal turn out when B10 was run?
A: 0.21 KA relative to UGCAUGU

Q: How did the binding signal turn out when B11 was run?
A: 0.146 KA relative to UGCAUGU

Q: B12 was tested. Which binding signal did it give?
A: 0.0875 KA relative to UGCAUGU

Q: Which binding signal does the source give for B13 here?
A: 0.0892 KA relative to UGCAUGU

Q: With B14 as the binder, how does the binding signal read?
A: 0.144 KA relative to UGCAUGU

Q: Which binding signal does the source give for B15 here?
A: 0.0569 KA relative to UGCAUGU

Q: With B16 as the binder, how does the binding signal read?
A: 0.0948 KA relative to UGCAUGU

Q: With B17 as the binder, how does the binding signal read?
A: 0.0564 KA relative to UGCAUGU

Q: Which binding signal does the source give for B18 here?
A: 0.0734 KA relative to UGCAUGU

Q: How did the binding signal turn out when B19 was run?
A: 0.772 KA relative to UGCAUGU

Q: B20 was tested. Which binding signal did it give?
A: 0.114 KA relative to UGCAUGU
